Results taken from article PMC12434519 (ACS Medicinal Chemistry Letters, 2025).

Biological target: SARS-CoV-2 NSP14 (Severe acute respiratory syndrome coronavirus 2, UniProt P0DTD1)
Assay: biochemical
[1] = Hill slope of the concentration-response fit
[2] = maximum response, LUM % inhibition, read-out: SARS-CoV-2 NSP14 inhibition: Maximum response (%)
[3] = read-out: SARS-CoV-2 NSP14 inhibition: IC50
[4] = LUM % inhibition, read-out: SARS-CoV-2 NSP14 inhibition: IC50
[5] = LUM % inhibition, read-out: SARS-CoV-2 NSP14 inhibition: Maximum response
[6] = fit of concentration-response curve
[7] = Merged IC50 (µM), TDI-015051 series, retrospective VS set, biochemical MTase assay
[8] = TDI-015051 series, retrospective VS set, biochemical MTase assay, read-out: Merged IC50

| SMILES | IC50 [4] | Emax [5] | SARS-CoV-2 NSP14 inhibition: Hill slope [6] | other results |
| --- | --- | --- | --- | --- |
| O=C(NCc1nnc2ccccn12)c1ccc(Cl)c(S(=O)(=O)N2CCCCCC2)c1 [RU-0833912] |  |  |  | SARS-CoV-2 NSP14 inhibition: Hill slope [1]: 0.803; Emax [2]: 40.2%; IC50 [3]: > 62.5 µM |
| O=C(COc1ncnc2ccccc12)Nc1cccc(S(=O)(=O)N2CCCCCC2)c1 [RU-0833896] | > 125 µM | 8.44% | 112 |  |
| C[C@@H](NC(=O)c1cccc(S(=O)(=O)N(C)c2cccc(Cl)c2)c1)c1ccncc1 [RU-0833642] |  |  |  | SARS-CoV-2 NSP14 inhibition: Hill slope [1]: 9.92; Emax [2]: 0.45%; IC50 [3]: > 62.5 µM |
| O=C(NC[C@H]1C[C@H](CNC(=O)c2ncn3ccccc23)C1)c1c(F)cc(O)cc1F [RU-0834151] | > 125 µM | 10.9% | 221 |  |
| Cc1ccc(N(C)S(=O)(=O)c2cccc(C(=O)N[C@H](C)c3ccc4c(c3)OCCO4)c2)cc1 [RU-0833659] |  |  |  | SARS-CoV-2 NSP14 inhibition: Hill slope [1]: 46.6; Emax [2]: -1.59%; IC50 [3]: > 62.5 µM |
| Cc1cc(C(=O)N[C@@H]2CC[C@H](CNC(=O)c3n[nH]c4ccccc34)C2)ccc1O [RU-0834155] | 32.4 µM | 49.6% | 0.765 |  |
| Cc1c(S(=O)(=O)c2cccc(C#N)c2)cc(C(=O)NCc2c(Cl)cnn2C)n1C [TDI-016685, Cc1c(S(=O)(=O)c2cccc(C#N)c2)cc(C(=O)NCc2c(Cl)cnn2C)n1C] |  |  |  | IC50 [7]: 0.0167 µM |
| Cc1cc(F)cc(CC(=O)NCC2COC(CNC(=O)c3n[nH]c4cc(C)ccc34)C2)c1 (stereo not shown) [RU-0834199] | > 125 µM | 12.1% | 51 |  |
| Cc1c([S+]([O-])c2cc(Cl)c3[nH]ncc3c2)cc(C(=O)NCc2c(Cl)cnn2C)n1C (stereo not shown) [TDI-016715, Cc1c(S(=O)c2cc(Cl)c3[nH]ncc3c2)cc(C(=O)NCc2c(Cl)cnn2C)n1C] |  |  |  | IC50 [8]: 0.0272 µM |
| O=C(CCc1c[nH]c2ccccc12)Nc1cccc(S(=O)(=O)N2CCCC2)c1 [RU-0833647] |  |  |  | SARS-CoV-2 NSP14 inhibition: Hill slope [1]: 56.4; Emax [2]: -2.13%; IC50 [3]: > 62.5 µM |
| Cc1cc(C(=O)NC2CC(O)(CNC(=O)c3ncn4ccccc34)C2)cc2cn[nH]c12 (stereo not shown) [RU-0834183] | > 125 µM | 11.1% | 42.8 |  |
| Cc1ccc2c(C(=O)NCC3CC(CNC(=O)c4ccn5cncc5c4)CO3)n[nH]c2c1 (stereo not shown) [RU-0834110] | 24.8 µM | 67.1% | 2.31 |  |
| O=C(NCc1nnc2ccccn12)Nc1ccnc2ccc(Oc3ccccc3)cc12 [RU-0833905] | > 125 µM | 41.5% | 0.577 |  |
| Cc1cc(C(=O)N2C[C@@H]3[C@@H](CNC(=O)c4cnc5ncccn45)[C@@H]3C2)cc2cn[nH]c12 [RU-0834153] | > 125 µM | 23.8% | 0.968 |  |
| CC(NC(=O)c1cccc(CNC(=O)c2ccc3cncn3c2)n1)c1ccc(F)cc1 (stereo not shown) [RU-0834182] | 76.4 µM | 66.7% | 0.699 |  |
| Cn1cc2cc(C(=O)NC3CC(O)(CNC(=O)c4cnn5ncccc45)C3)ccc2n1 (stereo not shown) [RU-0834113] | > 125 µM | 10.4% | 368 |  |
| O=C(NCc1ccc(CNC(=O)c2n[nH]c3ccccc23)cc1)c1c(F)cc(O)cc1F [RU-0834170] | > 125 µM | 15.3% | 96.9 |  |
| O=C(NCc1cccnc1N1CCCC1)c1ccc(Cl)c(S(=O)(=O)N2CCn3nccc3C2)c1 [TDI-014477, O=C(NCc1cccnc1N1CCCC1)c1ccc(Cl)c(S(=O)(=O)N2CCn3nccc3C2)c1] |  |  |  | IC50 [8]: 0.063 µM |
| Cc1cnc(C(=O)NCc2ccc(CCNC(=O)c3ccc4cncn4c3C)cc2)c(F)c1 [RU-0834176] | 18.8 µM | 76.8% | 0.909 |  |
| Cc1c(S(=O)(=O)N2CCc3[nH]ncc3C2)cc(C(=O)N[C@@H]2CCN(c3ccc(C#N)cn3)C2)n1C [TDI-017304, Cc1c(S(=O)(=O)N2CCc3[nH]ncc3C2)cc(C(=O)N[C@@H]2CCN(c3ccc(C#N)cn3)C2)n1C] |  |  |  | IC50 [7]: 0.000146 µM |
| O=C(NCC1CN(C(=O)c2ccc3[nH]ccc3c2)C1)c1cccc2cn[nH]c12 [RU-0833668] |  |  |  | SARS-CoV-2 NSP14 inhibition: Hill slope [1]: 17.8; Emax [2]: 10.4%; IC50 [3]: > 62.5 µM |

| SMILES | IC50 [4] | Emax [5] | SARS-CoV-2 NSP14 inhibition: Hill slope [6] | other results |
| --- | --- | --- | --- | --- |
| COc1ccc(CCNC(=O)c2ccc(Cl)c(S(=O)(=O)N3CCCCC3)c2)cc1 [RU-0833901] | > 125 µM | 18.3% | 16.9 |  |
| COc1ccc(F)c(C(=O)NC(C)c2cccc(NC(=O)c3ccccc3)c2)c1OC (stereo not shown) [RU-0833919] | > 125 µM | 13.5% | 1.06 |  |
| Cc1c(F)ccc(C(=O)NCc2ccc(CNC(=O)c3cccc(CO)c3)cc2)c1C [RU-0834095] | 74.8 µM | 36.8% | 0.616 |  |
| Cc1c(S(=O)(=O)c2cc(Cl)c3[nH]ncc3c2)cc(C(=O)NCc2ccnn2C)n1C [TDI-016469, Cc1c(S(=O)(=O)c2cc(Cl)c3[nH]ncc3c2)cc(C(=O)NCc2ccnn2C)n1C] |  |  |  | IC50 [8]: 0.000596 µM |
| Cc1nccc(CCC(=O)NCCC2(C)CCN(C(=O)c3cc(C)c4[nH]ncc4c3)C2)n1 (stereo not shown) [RU-0834198] |  | 16.8% | 14.7 | IC50 (SARS-CoV-2 NSP14 inhibition: IC50, LUM % inhibition): > 125 µM |
| COc1ccccc1CNC(=O)c1cccc(S(=O)(=O)N2CCc3ccccc3C2)c1 [TDI-013767, COc1ccccc1CNC(=O)c1cccc(S(=O)(=O)N2CCc3ccccc3C2)c1] |  |  |  | IC50 [8]: 0.824 µM |
| Cc1cc(C(=O)NCC2(C)CCC(NC(=O)c3n[nH]c4cccnc34)C2)cc2cn[nH]c12 (stereo not shown) [RU-0834188] | 25.3 µM | 29.9% | 0.824 |  |
| Cc1cccc(F)c1CC(=O)NCC1CC(CNC(=O)c2ccc3c(c2)COC3)CO1 (stereo not shown) [RU-0834125] | > 125 µM | 14.7% | 14.5 |  |
| Cc1cc(C(=O)N2Cc3ccc(CNC(=O)c4ccc5[nH]ncc5c4)cc3C2)ncc1CO [RU-0834094] | > 125 µM | 66.7% | 0.683 |  |
| O=C(NCc1ccc(CNC(=O)C2CCc3ncnn3C2)cc1)c1cccc(F)c1Cl (stereo not shown) [RU-0834141] | > 125 µM | 13.1% | 70.5 |  |
| O=C(CNc1cccc(S(=O)(=O)N2CCCCC2)c1)N1CCCc2cccc(F)c21 [RU-0833644] |  |  |  | SARS-CoV-2 NSP14 inhibition: Hill slope [1]: 19.2; Emax [2]: 1.99%; IC50 [3]: > 62.5 µM |
| O=C(NCc1ccc(C(=O)NCCc2ccccc2O)nc1)c1ccc2[nH]ncc2c1 [RU-0834136] | 15.4 µM | 57.7% | 1.01 |  |
| COc1ccc(CCNC(=O)c2ccc(C)c(S(=O)(=O)Nc3ccccc3)c2)cc1OC [RU-0833944] | > 125 µM | 16.4% | 1.54 |  |
| CN(C1CCCCC1)S(=O)(=O)c1cccc(C(=O)NCCc2c[nH]c3ccccc23)c1 [RU-0833639] |  |  |  | SARS-CoV-2 NSP14 inhibition: Hill slope [1]: -47.8; Emax [2]: -2.15%; IC50 [3]: > 62.5 µM |
| Cc1ccn2c(C(=O)NCCC3CCC(NC(=O)c4cc5cn[nH]c5cn4)C3)cnc2c1 (stereo not shown) [RU-0834195] | > 125 µM | 21.9% | 0.503 |  |
| Cc1cccc(C(CCO)NC(=O)NC(C)Cn2ncc3ccccc3c2=O)c1 (stereo not shown) [RU-0833921] | > 125 µM | 11.6% | 0.162 |  |
| CC[C@H](CNC(=O)c1cncc2cccnc12)NC(=O)c1ccc2ccccc2n1 [RU-0833685] |  |  |  | SARS-CoV-2 NSP14 inhibition: Hill slope [1]: 1.91; Emax [2]: 2.85%; IC50 [3]: > 62.5 µM |
| CCc1ccccc1NS(=O)(=O)c1ccc2ncc(C(=O)NCc3cccnc3)c(O)c2c1 [RU-0833866] |  |  |  | SARS-CoV-2 NSP14 inhibition: Hill slope [1]: 269; Emax [2]: 25.9%; IC50 [3]: > 125 µM |
| Cc1cc(CC(=O)N2CCn3ncc(CNC(=O)C4CCc5ccccc54)c3C2)ccc1O (stereo not shown) [RU-0834193] | > 125 µM | 12.2% | 117 |  |
| O=C(Cc1ccc2c(c1)CCC2)Nc1cccc(S(=O)(=O)N2CCCC2)c1 [RU-0833897] | > 125 µM | 6.86% | 12 |  |
| O=C(NCc1c(F)ccc2cnn(C3CC3)c12)c1ccc(Cl)c(S(=O)(=O)N2CCc3[nH]ncc3C2)c1 [TDI-016152, O=C(NCc1c(F)ccc2cnn(C3CC3)c12)c1ccc(Cl)c(S(=O)(=O)N2CCc3[nH]ncc3C2)c1] |  |  |  | IC50 [8]: 0.000249 µM |

Where two headings read alike, the source gives them in different places.
